Test results from ChEMBL document CHEMBL4888484, “Replenishing the malaria drug discovery pipeline: Screening and hit evaluation of the MMV Hit Generation Library 1 (HGL1) against asexual blood stage Plasmodium falciparum ,using a nano luciferase reporter read-out” (2022).
Among all 150,000 compounds or so, about 540 (0.36%) showed an effect of 50% or more. This is one part of the list.

Test system: Plasmodium falciparum
Assay: Primary screen in NF54 nanoGlo assay, in single point, at 2uM, 72h; a lower Z score goes with more inhibition
Assay type: functional, Erythrocyte
Conditions: timepoint 72 hour

SMILES | % Inhibition | Z score
O=C(O)CCc1nc2ccccc2n1-c1ccc(C(F)(F)F)nc1 | -12% | 1.69
COc1ccc(CN2CCN(Cc3cc(C(C)C)[nH]n3)C[C@@H]2CCO)c(F)c1 | -4% | 0.41
N#Cc1cnn(-c2ccc(NC(=O)c3ccc(Oc4ccccc4)cc3)cc2)c1N | -6% | 0.77
NC(=O)c1ccc(NC(Cc2ccccn2)[C@H]2C[C@H](O)C2)nc1 (stereo partly specified) | -18% | 1.67
COc1ccc(CN2CCC(c3ccc4cccnc4n3)CC2)cn1 | -6% | 0.9
c1nc(N2CCC(COc3cc4c(nn3)CCC4)CC2)c2nc[nH]c2n1 | -18% | 2.07
Cc1cc(CNC(=O)c2cnc3n2CCCC3)ccc1Cl | 1% | -0.13
Cc1cc2cc(CNC(=O)CCC3CCCC3)ccc2n1C | 0% | 0.07
Cc1ccc(-c2csc(N3CCN(Cc4ccc5c(c4)OCO5)CC3)n2)cc1 | 4% | -0.5
Cn1ccc(NC(=O)CN2C[C@]3(C)C[C@H]2CC(C)(C)C3)n1 | 7% | -0.98
Cc1ccc(F)c(CN2CCc3nc(N4CCCC4)nc(Oc4ccccc4C)c3C2)c1 | -10% | 1.34
COc1ccc(F)c(NCc2csc(N(C(C)=O)C3CC3)n2)c1 | 3% | -0.36
O=C(O)CC[C@H]1CCCN(C(=O)c2coc3ccccc23)C1 | 2% | -0.28
CCN(Cc1nc2ccccc2c(=O)[nH]1)C(=O)NC1CCCCCC1 | -40% | 4.67
CN(C(=O)c1cc2n(n1)CCCC2)[C@H](c1ccccc1)C(F)(F)F | 4% | -0.83
COc1ccc(-c2cn3cc(C)nc3n2C)cc1 | 42% | -5.45
C=CCn1c(C(=O)N2CCC(C)CC2)cc2c(OCc3cccc(C)c3)cccc21 | -10% | 1.74
Cc1ccc(CN2C(=O)CN(S(=O)(=O)c3ccccc3)C[C@@]2(C)C(=O)NCCC(C)C)cc1 | -7% | 0.88
CCc1nnc([C@@H]2CCCN2S(=O)(=O)c2cccs2)[nH]1 | -11% | 1.39
Cc1ccc2nc(-c3ccc(N4C(=O)C[C@H](N5CCC(C)CC5)C4=O)cc3)sc2c1 | -8% | 1.52
CC1(C)C[C@H](O)c2cccc(NCC(=O)N3CCNC3=O)c2O1 | -2% | 0.41
CCOc1cc(C(=O)NC[C@@H]2C[C@H]2c2cccnc2)n[nH]1 | 2% | -0.29
CC[C@H](NC1CCN(c2ncnc3[nH]cnc23)CC1)c1ccnn1C | -11% | 1.67
CC(NC1CCCC2(CC2)C1)c1nccn1-c1ccccc1 (stereo unspecified) | -9% | 1.02
CCc1cnc(C)nc1-c1ccc(C(=O)N(C)CCc2noc(C)n2)cc1 | -8% | 0.78
CN1CCC(CN(CCc2ccccc2)C(=O)CN2CCCCC2)CC1 | -15% | 1.8
CC(C)c1ncsc1C(=O)N1CC(C)(C)[C@@H]1C1CC1 | 3% | -0.29

SMILES | % Inhibition | Z score
CCc1nnc(-c2cccn2CC(=O)Nc2ccccc2CC)o1 | -17% | 1.72
CNCCOc1ccc(Cl)c(Cl)c1 | 1% | -0.09
CCCNc1ncc(CN2C[C@H](OC)[C@@H](O)C2)cn1 | -20% | 2.16
O=C(c1cc(S(=O)(=O)N2CCCC2=O)c(Cl)cc1Cl)N1CCOCC1 | -10% | 1.99
COCCN(C)Cc1ccc(CC2CCN(C(=O)c3ccc(O)nc3)CC2)cc1 | -7% | 1.3
Cc1cn2c(n1)CC[C@H](NCCC(C)(C)C)C2 | -15% | 1.92
CCOC(C)(C)CS(=O)(=O)NC[C@H](C)c1nccs1 | -9% | 0.92
O=C(NC1CCCC1)N1CCC[C@H](C(=O)N2CCCc3n[nH]cc32)C1 | -2% | 0.22
C[C@]1(c2cccnc2)NC(=O)N(CCOc2cccc(Br)c2)C1=O | 5% | -0.86
CC(c1ncc(C(C)(C)C)o1)N(C)CC1CCCOC1 (stereo unspecified) | 1% | -0.08
O=C1C[C@@H](C(=O)Nc2ccc3c(c2)OCO3)c2c(nc(N3CCOCC3)[nH]c2=O)N1 | -13% | 1.57
CCOC(=O)c1cnc(NCCn2ccnc2C)s1 | -12% | 1.57
CCc1c(C(N)=O)cnn1-c1ccc(NC(=O)c2cc(F)cc(F)c2)cc1 | -23% | 4.5
CN(CC1(c2ccccc2)CC1)C(=O)NC1CCCC1CCO (stereo unspecified) | -4% | 0.6
CCOC(=O)C(Cc1ccccn1)NC(=O)C1CCCC(F)(F)C1 (stereo unspecified) | -11% | 2.19
CCCOC[C@H]1CCN(C(=O)CN2CCOCC2)C1 | -5% | 0.72
O=C(c1nnc(N2CCC(N3CCCCC3)CC2)n1CC1CC1)N1CCCC1 | -12% | 1.27
O=C1c2ccccc2C(=O)N1CCCCN(C(=O)c1ccc(S(=O)(=O)N2CCCC2)cc1)c1ccc(F)cc1F | -5% | 0.98
Cc1cnc(C2CCN(C(=O)c3cscn3)CC2)n1[C@H](C)CO | -3% | 0.53
Cc1cnc(C)c(NCC2CC(O)CN2Cc2ccccc2)n1 (stereo unspecified) | -9% | 1.23
CCC(CC)C(=O)Nc1ccc(Oc2cc(C(=O)O)nn2C)c(S(=O)(=O)NCC(C)C)c1 | -19% | 1.71
COCC(=O)N(Cc1cccc(C)c1)c1ccc(CC(=O)NCCN(C)C)cc1 | -8% | 1.07
COc1nc2c(c(C)nn2-c2cccc(F)c2)c(C)c1CCC(=O)NCc1ccc(F)cc1 | -9% | 1.26
O=C(NCCc1cnc(O)nc1)[C@@H]1Cc2cc(F)ccc2O1 | 0% | 0.06
CC(C)c1nc(CN2CCc3nocc3C2)co1 | -12% | 1.19
CC[C@H](C)[C@@H]1NC(=O)N(Cc2coc(-c3ccccc3)n2)C1=O | -1% | 0.14
